Reference: the supplement of paper PMC11417369
± gives the standard deviation of the averaged measurements. This is one part of the list.

System: PfAP2-I AP2 domain 3 (GST-tagged)
Experiment: gcPBM binding intensity (ln(normalized median fluorescence intensity)); higher = stronger DNA binding
Method in brief: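 Each value is the highest Masliner-normalised natural-log median intensity across replicate spots of either orientation of a probe. The probes were primer-extended double-stranded 36-bp intergenic genomic sequences on an Agilent 4 × 180k array, alongside negative controls, exposed for 1 h to GST-tagged P. falciparum DNA-binding domains expressed in E. coli. Bound protein was picked up with Alexa488 anti-GST antibody and scanned at 488 nm.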

Sequence	gcPBM binding intensity (ln)
ACATATTCATATGGAAGTACGATAATGTAGTCATAT [XGTACX_site7080]	7.75 ± 0.61
ATATATACATACAAATTAATTACGAGGAATATATTA [XGTACX_negctrl_site417]	7.67 ± 0.42
GGAACTTATTTTTATACACACATATGTGCATATTAT [CACACA_site629]	9.27 ± 0.27
GTAAAAAAATTAAAAATTAACAAGGAATTAAGTATA [CACACA_negctrl_site1688]	7.42 ± 0.61
TATACATATATATACACACACACATATATATATATA [CACACA_site1299]	9.16 ± 0.42
ATCATAAATATAGCAACACACGGATTACATAAAATA [CACACA_site2796]	7.92 ± 0.49
TTAAAAAAATAATTAACACACACATGTATATCTATA [CACACA_site9026]	7.51 ± 0.5
TTGTAATAAATAAAAGTGCAGATATGGTTCCACTAA [GTGCAC_site9942]	9.36 ± 0.21
TTTGCGTAGAAATGTGTGCACTGATATTTATAATAA [GTGCAC_site9526]	10.6 ± 0.035
ATTTTCCTTTTACCACGTACACATAAAAACGTTATA [XGTACX_site3595]	8.31 ± 0.86
TGAACTCATAGGAAAACACACATATGGGTAATATAT [CACACA_site187]	7.9 ± 0.62
AAAAAAAATCAAATGGGTACTTATTCTTAATAATAT [XGTACX_site3792]	7.57 ± 0.57
TATTAAATATTGTATACATGCAAATACTAGAAAATT [TGCATGCA_site370]	9.15 ± 0.95
AATAATATAAATATTACACACTAATTGTATTATAGA [CACACA_site6347]	7.52 ± 0.41
TATATAACCGAGTGCACACACAAAAAAAAAGTGAAC [CACACA_site6806]	10.2 ± 0.49
AGGAAACAAGAAATGAAGAATCATGTAGAAGGCCCA [GTGCAC_negctrl_site187]	7.36 ± 0.65
CACAGTGATATAAAAACACACATGAATTCTAATTTC [CACACA_site6884]	7.56 ± 0.44
AGGTATGTCTATAAATGTACATATGAGTTCAATTTC [XGTACX_site2244]	7.79 ± 0.45
AAATATATATAAACAAGTACATATTTAAAAAAAGGA [XGTACX_site2631]	7.74 ± 0.49

Sequence	gcPBM binding intensity (ln)
CATAAAAATATTAATAAACACACAATCAGATATTGA [CACACA_site9032]	7.37 ± 0.6
ATATATATGAAACACACACACAAAAAAAAAAAAAAA [CACACA_site3647]	7.96 ± 0.75
ATAACACAAAATTGTTGTACACGTGTTAATAAGTGA [XGTACX_site4452]	8.19 ± 0.54
AATATTTATATAAATGCATGCTGATACAACAGTCTT [TGCATGCA_site21]	7.91 ± 0.83
TAAAGTTATGCAATAACACACATATACAATACATAT [CACACA_site6698]	7.99 ± 0.7
ATATTACGCACAAAAAAAAAAAAAAAAAAAAAAAAA [CACACA_negctrl_site941]	10.2 ± 0.68
ATGATGTGCTTTAAAAGTACTTAAGTTATATTCTTT [XGTACX_site7127]	9.61 ± 0.3
AAAATTAAAATTTTCACACAGATATATTTACAATTT [CACACA_site5692]	7.33 ± 0.61
TTCGTAACTGATTCAACACACAAAAGGGGGAAAATT [CACACA_site1754]	8.77 ± 0.057
AAAAAGAAGAATAATACACACAAATTACTTTATATA [CACACA_site6984]	7.39 ± 0.6
TAAATTAAAAAAAATACACACACACCGACACATATA [CACACA_site9084]	8.265 ± 0.078
TATGTTATATAATATTGTACACAAAATGGTTTCTAT [XGTACX_site7686]	7.74 ± 0.5
AATTACAAATATTCATGTACATATTTATAAATACAT [XGTACX_site5430]	7.87 ± 0.52
ATATATATATATATGTGTACATATATTAAGATATAT [XGTACX_site1065]	9.29 ± 0.42
ATATTATAGAAATATACACACATTGTTTTATAGCAT [CACACA_site7177]	7.75 ± 0.54
GTTTTGTACATATTCTCACACATATAAAAATACCCA [CACACA_site4446]	8.41 ± 0.27
AAGCATTTAATGTTTTATATAACATGTATTTTTTAT [CACACA_negctrl_site673]	7.68 ± 0.61
TTCATAATAAAAAGGTGTACATATATATATATATAT [XGTACX_site2829]	9.71 ± 0.2
TTTATATGTATACAAACATATAAATATAAATGTATT [TGCATGCA_negctrl_site346]	7.29 ± 0.48

Sequence	gcPBM binding intensity (ln)
TATATATACATATACACACACACACCGATATATATA [CACACA_site8706]	8.2 ± 0.73
TGTTCTATGATTTGTACACACTTTTTTTTAAAATGC [CACACA_site5558]	8.13 ± 0.39
TGTTAAAAGGTTAAATTAAAATAACCTCCGGAAATT [GTGCAC_negctrl_site236]	7.41 ± 0.69
GAATGCATGTAAATATGTACATATATTTAAAAATTT [XGTACX_site6032]	8.03 ± 0.54
AAAAAAATTTCACATTGTACTTTAATAATATACTAC [XGTACX_site7264]	7.77 ± 0.42
ATAAATATATATTTACGTACATATTATATATATATA [XGTACX_site6172]	8.77 ± 0.31
ACATATAAATTGTGTACACATATATATATATTTTTT [CACACA_site5946]	8.36 ± 0.29
ATAAATAATAAAAAATGTACACATATAAATATAAAG [XGTACX_site727]	7.89 ± 0.47
ATGATGAAAATAGAAATACACACTAAAAAATAAAAT [CACACA_site1136]	7.73 ± 0.78
AAAACATGTTCAACATGTACACAACAGGATGAATAT [XGTACX_site506]	8.02 ± 0.57
CTTACTTACTTACTCACACACATATACAAAGAAAAA [CACACA_site3347]	8.3 ± 0.47
AAATATATGTTATATGTGCACTTTTTTTTTTTTTTT [GTGCAC_site9667]	10.21 ± 0.035
TTTTACTAAATATATACACACATTATACATATATAT [CACACA_site9081]	7.88 ± 0.68
TAAAATGAATATAGGTGTACTTAAAAAAAAGTAAAA [XGTACX_site4613]	8.12 ± 0.35
TAAAAGAAATAATATACACACATATATAAAAATAAA [CACACA_site1329]	7.5 ± 0.54
TAAATTCTTTATAATCGTACATAAATAGAAAAATAA [XGTACX_site601]	7.75 ± 0.47
TATCGAGCCATTTTTACATGCAATTATACATAATTT [TGCATGCA_site987]	7.76 ± 0.59
TTCAAATAATTTAAATGTACGTTGCTTTATTAAAAG [XGTACX_site3674]	7.82 ± 0.47
